The results in this text go back to the supplement of paper PMC8728848.

This is one part of the list.

Assay in all cases: glycan array binding signal (z-score within array); higher = stronger binding
Conditions in all cases: glycan notation: IUPAC condensed, linker removed

In experiment [1] the target is Gal(b1-4)GlcNAc(b1-2)Man(a1-6)[Man(a1-3)]Man(b1-4)GlcNAc(b1-4)GlcNAc. The method in brief:
(§1)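 Columns mapping to the same glycan were averaged after glycan names were converted to IUPAC-condensed notation. The data come from 3228 arrays in the Consortium for Functional Glycomics database, limited to those with an available protein sequence. Binding is reported as a within-array Z-score averaged across arrays of one protein sequence and across linkers.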

In experiment [2] the target is Gal(b1-4)GlcNAc(b1-2)[Gal(b1-4)GlcNAc(b1-4)]Man(a1-3)[Gal(b1-4)GlcNAc(b1-2)Man(a1-6)]Man(b1-4)GlcNAc(b1-4)GlcNAc. The method, boiled down:
as §1

Experiment [3] addresses Gal(b1-4)GlcNAc(b1-2)[Gal(b1-4)GlcNAc(b1-4)]Man(a1-3)[Gal(b1-4)GlcNAc(b1-2)[Gal(b1-4)GlcNAc(b1-6)]Man(a1-6)]Man(b1-4)GlcNAc(b1-4)GlcNAc. The method, boiled down:
as §1

Experiment [4] has as its target Gal(b1-4)GlcNAc(b1-2)[Gal(b1-4)GlcNAc(b1-4)]Man(a1-3)[GlcNAc(b1-4)][Gal(b1-4)GlcNAc(b1-2)Man(a1-6)]Man(b1-4)GlcNAc(b1-4)GlcNAc. The method in brief:
as §1

Experiment [5] deals with Gal(b1-4)GlcNAc(b1-2)[Gal(b1-4)GlcNAc(b1-4)]Man(a1-3)[GlcNAc(b1-4)][Gal(b1-4)GlcNAc(b1-2)[Gal(b1-4)GlcNAc(b1-6)]Man(a1-6)]Man(b1-4)GlcNAc(b1-4)GlcNAc. The method, boiled down:
as §1

The target in experiment [6] is Gal(b1-4)GlcNAc(b1-2)[Gal(b1-4)GlcNAc(b1-6)]Man(a1-6)[Gal(b1-4)GlcNAc(b1-2)Man(a1-3)]Man(b1-4)GlcNAc(b1-4)GlcNAc. The method in brief: as §1
Experiment [7] has as its target Gal(b1-4)GlcNAc(b1-2)[Gal(b1-4)GlcNAc(b1-6)]Man(a1-6)[Gal(b1-4)GlcNAc(b1-2)Man(a1-3)]Man(b1-4)GlcNAc(b1-4)[Fuc(a1-6)]GlcNAc. The method in brief: as §1
Experiment [8] deals with Gal(b1-4)GlcNAc(b1-2)[Gal(b1-4)GlcNAc(b1-6)]Man(a1-6)[GlcNAc(b1-4)][Gal(b1-4)GlcNAc(b1-2)Man(a1-3)]Man(b1-4)GlcNAc(b1-4)GlcNAc. The method in brief: as §1
Experiment [9] addresses Gal(b1-4)GlcNAc(b1-2)[Gal(b1-4)GlcNAc(b1-6)]Man(a1-6)[GlcNAc(b1-4)][Gal(b1-4)GlcNAc(b1-2)[Gal(b1-4)GlcNAc(b1-4)]Man(a1-3)]Man(b1-4)GlcNAc(b1-4)[Fuc(a1-6)]GlcNAc. The method in brief:
as §1

For experiment [10], the target named is Gal(b1-4)GlcNAc(b1-3)Gal(b1-3)GalNAc. The method, boiled down:
as §1

In experiment [11] the target is Gal(b1-4)GlcNAc(b1-3)Gal(b1-3)GlcNAc. The method, boiled down:
as §1

Experiment [12] has as its target Gal(b1-4)GlcNAc(b1-3)Gal(b1-4)Glc. The method, boiled down: as §1
Experiment [13] concerns the target Gal(b1-4)GlcNAc(b1-3)Gal(b1-4)GlcNAc. The method in brief:
as §1

For experiment [14], the target named is Gal(b1-4)GlcNAc(b1-3)Gal(b1-4)GlcNAc(b1-2)Man(a1-3)[Gal(b1-4)GlcNAc(b1-3)Gal(b1-4)GlcNAc(b1-2)Man(a1-6)]Man(b1-4)GlcNAc(b1-4)GlcNAc. The method in brief:
as §1

Experiment [15] concerns the target Gal(b1-4)GlcNAc(b1-3)Gal(b1-4)GlcNAc(b1-2)Man(a1-3)[Gal(b1-4)GlcNAc(b1-3)Gal(b1-4)GlcNAc(b1-2)Man(a1-6)]Man(b1-4)GlcNAc(b1-4)[Fuc(a1-6)]GlcNAc. The method, boiled down: as §1
Experiment [16] addresses Gal(b1-4)GlcNAc(b1-3)Gal(b1-4)GlcNAc(b1-2)[Gal(b1-4)GlcNAc(b1-3)Gal(b1-4)GlcNAc(b1-6)]Man(a1-6)[Gal(b1-4)GlcNAc(b1-3)Gal(b1-4)GlcNAc(b1-2)Man(a1-3)]Man(b1-4)GlcNAc(b1-4)GlcNAc. The method, boiled down:
as §1

Experiment [17] deals with Gal(b1-4)GlcNAc(b1-3)Gal(b1-4)GlcNAc(b1-2)[Gal(b1-4)GlcNAc(b1-3)Gal(b1-4)GlcNAc(b1-6)]Man(a1-6)[Gal(b1-4)GlcNAc(b1-3)Gal(b1-4)GlcNAc(b1-2)Man(a1-3)]Man(b1-4)GlcNAc(b1-4)[Fuc(a1-6)]GlcNAc. The method, boiled down:
as §1

Experiment [18] deals with Gal(b1-4)GlcNAc(b1-3)Gal(b1-4)GlcNAc(b1-3)Gal(b1-4)GlcNAc. The method in brief:
as §1

The target in experiment [19] is Gal(b1-4)GlcNAc(b1-3)Gal(b1-4)GlcNAc(b1-3)Gal(b1-4)GlcNAc(b1-2)Man(a1-3)[Gal(b1-4)GlcNAc(b1-3)Gal(b1-4)GlcNAc(b1-3)Gal(b1-4)GlcNAc(b1-2)Man(a1-6)]Man(b1-4)GlcNAc(b1-4)GlcNAc. The method in brief: as §1
Experiment [20] concerns the target Gal(b1-4)GlcNAc(b1-3)Gal(b1-4)GlcNAc(b1-3)Gal(b1-4)GlcNAc(b1-2)Man(a1-3)[Gal(b1-4)GlcNAc(b1-3)Gal(b1-4)GlcNAc(b1-3)Gal(b1-4)GlcNAc(b1-2)Man(a1-6)]Man(b1-4)GlcNAc(b1-4)[Fuc(a1-6)]GlcNAc. The method in brief: as §1
Experiment [21] has as its target Gal(b1-4)GlcNAc(b1-3)Gal(b1-4)GlcNAc(b1-3)Gal(b1-4)GlcNAc(b1-2)[Gal(b1-4)GlcNAc(b1-3)Gal(b1-4)GlcNAc(b1-3)Gal(b1-4)GlcNAc(b1-6)]Man(a1-6)[Gal(b1-4)GlcNAc(b1-3)Gal(b1-4)GlcNAc(b1-3)Gal(b1-4)GlcNAc(b1-2)Man(a1-3)]Man(b1-4)GlcNAc(b1-4)[Fuc(a1-6)]GlcNAc. The method in brief:
as §1

Experiment [22] deals with Gal(b1-4)GlcNAc(b1-3)Gal(b1-4)GlcNAc(b1-3)Gal(b1-4)GlcNAc(b1-3)Gal(b1-4)GlcNAc(b1-2)Man(a1-3)[Gal(b1-4)GlcNAc(b1-3)Gal(b1-4)GlcNAc(b1-3)Gal(b1-4)GlcNAc(b1-3)Gal(b1-4)GlcNAc(b1-2)Man(a1-6)]Man(b1-4)GlcNAc(b1-4)GlcNAc. The method in brief: as §1

B1: Als3-2 (Candida albicans) (protein)
chain: KTITGVFNSFNSLTWSNAATYNYKGPGTPTWNAVLGWSLDGTSASPGDTFTLNMPCVFKFTTSQTSVDLTAHGVKYATCQFQAGEEFMTFSTLTCTVSNTLTPSIKALGTVTLPLAFNVGGTGSSVDLEDSKCFTAGTNTVTFNDGGKKISINVDFERSNVDPKGYLTD
Turning to B1, the “glycan array binding signal (z-score)” value in experiment [1] is -0.194; in experiment [2], -0.643; in experiment [3] it was -0.603; in [4], -0.22; in [5] it was -0.482; in experiment [6], -0.63. Further, the “glycan array binding signal (z-score)” value in [7] was -0.464; in [8] it was -0.599; in [9], -0.701; in [10], -0.344; in experiment [11], -0.612; in experiment [12] it was -0.332. Further, the “glycan array binding signal (z-score)” value in [13] was -0.352; in experiment [14] it was 1.14; in experiment [15], 1.04; in experiment [16] it was 2.24; in experiment [17] it was 1.87; in experiment [18] it was -0.495. Further, the “glycan array binding signal (z-score)” value was 3.26 in experiment [19], 2.66 in [20], -0.345 in [21] and 2.75 in experiment [22].
